Laboratory results from the RNAGym collection of RNA variant scans (doi:10.1093/nar/gkz1192).
Read counts are not given, so values of variants with three or more changes are uncertain.

B1: CPEB3 Ribozyme (parent)
chain: UAACAGGGGGCCACAGCAGAAGCGUUCACGUCGCAGCCCCUGUCAGAUUCUGGUGAAUCUGCGAAUUCUGCUGUAUAUCUC

Variants of: B1
Test: self-cleavage, relative activity (ratio to wild type); higher = more cleavage; in vitro, sequencing
In short: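 For each CPEB3 ribozyme variant, relative activity is its cleaved/total read fraction divided by the unmutated ribozyme's. Barcoded error-prone PCR libraries were transcribed by T7 RNA polymerase (5 hours, 37°C) and held in DNase I for 15 min before an EDTA stop, with cleavage occurring throughout. Template-switching reverse transcription and Illumina sequencing were used to read the RNAs. A 5-read minimum applied, and results are the mean of three batches.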

Q: For UAACAGGGGGCCGCAGCAGAGGCGUUCACGUCGCAGCCCCUGUCAGAUUCUGGUGAGUCUGCGAACUCUGCUGUUUAUCUC, which self-cleavage is on record?
A: The self-cleavage was 0.75.

Q: With UAACAGGGGGCCGCAGCAGAGGCGUUCACGUCGAAGCCCCUGUCAGAUUCUGGUGAAUCUGCGAAUUCUGUGGUAUAUCUC as the variant, how does the self-cleavage read?
A: Its self-cleavage is 0.07.

Q: Which self-cleavage does the source give for UAACAGGGGGCCGCAGCAGAGGCGCUCACGUCGCAGCCCUUGUCAGAUUCUGGAGAAUCUGCGAAUUCUGCUGUAUAUUUC here?
A: Its self-cleavage is 0.03.

Q: With UAACAGGGGGCCGCAGCAGAGGCGUUCACGUCGCAGCCCCUGCCAGAUUCUGGUGAAUCUGCGAAUUCUGCUGUAUAUCUC as the variant, how does the self-cleavage read?
A: The self-cleavage was 0.25.

Q: For UAACAGGGGGCCGCAGCAGAGGCGUUCACGUCGCAGCCCCUGUCAGAUUCAGGUGAAUCUGCGAAUUCUGCUGUAUAUCUC, which self-cleavage is on record?
A: The self-cleavage was 0.55.

Q: For UAACAGGGGGCCGCAGCAGAGGCGUUCACGUCGCAGCCCCUGUCAGAUUCUGGAGAAUCUGCGAAUUCUGCCGUAUAUCUC, which self-cleavage is on record?
A: Its self-cleavage is 0.44.

Q: Which self-cleavage does the source give for UAACAGGGGGCCGCAGCAGAGGCGUUCACGUCGCAGCCCCUGUCAGAUUCUGGUGAAUCUGCGAAUUCUGCAGUAUAUCUC here?
A: Its self-cleavage is 0.36.

Q: Which self-cleavage does the source give for UAACAGGGGGCCGCAGCAGAGGCGUUCACGUCGCAGCCCCUGUCAGAUUCUGGUGAAUCUGCGAAUUCUGCUGUACAUCUC here?
A: Its self-cleavage is 0.53.

Q: For UAACAGGGGGCCGCAGCAGAUGCGUUUAUGUCGCAGCCCCUGUCAGACUCUGGUGAAUCUGCGAAUUCUGCUGUAUAUCUC, which self-cleavage is on record?
A: Its self-cleavage is 0.08.

Q: Which self-cleavage does the source give for UAACAGGGGGCCGCAGCAGAUGCGUUCACGUAGCAGCCCCUGUCAGAGUCCGGUGAAUCUGCGUAUUCUGCUGUAUAUCUC here?
A: Its self-cleavage is 0.09.

Q: For UAACAGGGGGCCGCAGCAGAUGCGCUCACGUCGCAGCCCCUGUCAGAUUCUGGUGAAUCUGCGAAUUCCGCUGUAUAUCUC, which self-cleavage is on record?
A: Its self-cleavage is 0.06.

Q: For UAACAGGGGGCCGCAGCAGAUGCGUUCACGCCGCAGCCCCAGUCAGAUUCUGGUGAAUCUGCGAAUUCUGCUGUAUACUUC, which self-cleavage is on record?
A: The self-cleavage was 0.05.

Q: Which self-cleavage does the source give for UAACAGGGGGCCGCAGCAGAUGCGUUCACGUCGCAGCCCCUGUCAGAUUCCGAUGAAUCUGCGAAUUCUGCUGUAUAUCCC here?
A: Its self-cleavage is 0.35.

Q: For UAACAGGGGGCCGCAGCAGAAGCGUUCCCGUCGCAGCCCCUGUCAGAUUCUGGUGAAUCUGCGAAUUCUGCUAUAUAUCUC, which self-cleavage is on record?
A: The self-cleavage was 0.72.

Q: For UAACAGGGGGCCGCAGCAGAAGCGUUCCCGUCGCAGCCCCUGUCAGACUCUGGUGAAUCUGCGAAUUCUGCAGUAUAUCUC, which self-cleavage is on record?
A: The self-cleavage was 0.1.

Q: Which self-cleavage does the source give for UAACAGGGGGCCGCAGCAGAAGCGUUCCCGUCGCAGCCCCUGUCAGAUUCUGGCGAAUCUGCGAAUUCUGCUAUAUAUCUC here?
A: Its self-cleavage is 0.59.

Q: With UAACAGGGGGCCGCAGCAGAAGCGUUCGCGUCGCAGCCCCUGUCCGAUUCUGAUGAAUCUGCGAAUUCUGCAGUACAUCUC as the variant, how does the self-cleavage read?
A: Its self-cleavage is 0.04.

Q: Which self-cleavage does the source give for UAACAGGGGGCCGCAGCAGAAGCGUUCGCGUCGCAGCCCCUGUCUGAUUCUGGUGAGUCUGCGAAUUCUGCUGUAUAUCUC here?
A: Its self-cleavage is 0.08.

Q: Which self-cleavage does the source give for UAACAGGGGGCCGCAGCAGAAGCGUUCGCGUCGCAGCCCCUGUCUGAUUCAGGUGAAUCUGCGAAUUCUGCUGUAUAUCUC here?
A: Its self-cleavage is 0.43.

Q: For UAACAGGGGGCCGCAGCAGAAGCGUUCGCGUCGCAGCCCCUGUCAGGUUCUGGUGAAUCAGCGAAUUCUGCUGUAUAUCUC, which self-cleavage is on record?
A: Its self-cleavage is 0.36.

Q: Which self-cleavage does the source give for UAACAGGGGGCCGCAGCAGAAGCGUUCGCGUCGCAGCCCCUGUCAGAUUCUGGUGAGUCUGCGAAUUCAACUGUAUAUCUC here?
A: Its self-cleavage is 0.19.

Q: Which self-cleavage does the source give for UAACAGGGGGCCGCAGCAGAAGCGUUCGCGUCGCAGCCCCUGUCAGAUUCUGGUGAAUCUGCGGAUUCUGCUGUAUAUCUC here?
A: Its self-cleavage is 0.34.

Q: For UAACAGGGGGCCGCAGCAGAAGCGUUCGCGUAGCAGCCCCUGUCAGAUUCUGGAGAAUCUGCGAAUUCUGCUGUAUAUCUC, which self-cleavage is on record?
A: The self-cleavage was 0.12.

Q: Which self-cleavage does the source give for UAACAGGGGGCCGCAGCAGAAGCGUUCGCGUCGCAGCCUCUGUCAGAUUCUGGCGAAUCUGCGAAUUCUGCUGUAUGUCUC here?
A: Its self-cleavage is 0.31.

Q: For UAACAGGGGGCCGCAGCAGAAGCGUUCGCGUCGCAGCCCUUGUCGGAUUCUGGUGAAUCAGCGAAUUCUGCUGUAUAUCUC, which self-cleavage is on record?
A: The self-cleavage was 0.1.

Q: Which self-cleavage does the source give for UAACAGGGGGCCGCAGCAGAAGCGUUCGCGUCGCAGCCCCUGCCAGAUUCUGGUGAAUCCGCGAGUUCUGCUGUAUAUCUC here?
A: The self-cleavage was 0.

Q: For UAACAGGGGGCCGCAGCAGAAGCGUUCUCGUCGCUGCCCCUGUCAGAUUCUGGUGAAUCUGCGAAUUCUGCUGUAUAUCCC, which self-cleavage is on record?
A: The self-cleavage was 0.33.

Q: For UAACAGGGGGCCGCAGCAGAAGCGUUCUCGUCGCAGCCCCUGUCAGAUUCUGGUGAAUCUGCGAAUUCUGCUGAAUGUCUC, which self-cleavage is on record?
A: Its self-cleavage is 1.1.

Q: Which self-cleavage does the source give for UAACAGGGGGCCGCAGCAGAAGCGUUCUCGUCGCAGCCCCUGUCAGAUUCUGGUGAAUCUGCGAAUUCUGCUGCAUAUCUC here?
A: Its self-cleavage is 0.37.

Q: For UAACAGGGGGCCGCAGCAGAAGCGUUCACGUCGCCGCCCCUGUCAGAUUCUGGUGAAUCUGCGAAUUCUGCUGUAUACCUC, which self-cleavage is on record?
A: The self-cleavage was 0.7.

Q: For UAACAGGGGGCCGCAGCAGAAGCGUUCACGUCGCGGCCCUUGUCAGAUUCUGGUGAAUCCGCGAGUUCCGCUGUAUAUCUC, which self-cleavage is on record?
A: The self-cleavage was 0.1.

Q: With UAACAGGGGGCCGCAGCAGAAGCGUUCACGUCGCGGCCCCUGUCAAAUUCUGGUGAAUCUGCGAAUUCUGCUGUAUAUCUC as the variant, how does the self-cleavage read?
A: The self-cleavage was 0.44.

Q: For UAACAGGGGGCCGCAGCAGAAGCGUUCACGUCGCGGCCCCCGUCUGAUUCUGGUGAAUCUGCGAAUUCUGCUGUAUAUCUC, which self-cleavage is on record?
A: The self-cleavage was 0.35.

Q: With UAACAGGGGGCCGCAGCAGAAGCGUUCACGUCGCGGCCCCUGUCAGAUUCUGGUGAAUCUGCGAAUUCUGCUGUACAUCUC as the variant, how does the self-cleavage read?
A: The self-cleavage was 0.81.
